# Reference: patent publication US20090291999A1, “Agent Exhibiting a Neurotropic, Neuromodulator, Cerebrovascular and Anti-Stroke Activity” (AKHAPKINA, Valentina Ivanovna, priority 2006, published 2009)
# Test system: rats with distal occlusion of medial cerebral artery (OMCA)
# Test: Ischemic stroke (OMCA) model: neurologic status on McGrow's Stroke-index scale
# Protocol: For this study a model of local cerebral ischemia was used for rats with distal occlusion of medial cerebral artery (OMCA), which was first described by S. T. Chen (1989). The heads of animals, which were narcotized with chloral hydrate (300 mg/Kg, intraperitoneally), were rigidly fixed in a lateral position, left side upwards. After cutting the skin in the middle between the left auricle and the left eye temporal muscle fibers were moved apart up to the skull surface. Using a dental drilling machine with a bur 0.5 mm in diameter, a hole app.
# With the use of a microscope (Olympus SZ-CTV), under a big magnification (14.0×3.3), a special metal hook was placed under the left medial cerebral artery. Occlusion of the medial cerebral artery was performed by a method of electrocoagulation proximally the place of its bifurcation into the frontal and the parietal branches. At this time in the visual field of the microscope stoppage of the blood flow along the medial cerebral artery upstream the place of occlusion could be observed. After the operation the wound was closed layer-by-layer, and ipsilateral occlusion of the common carotid artery was performed.
# Neurologic status of the animals was determined on the McGrow's Stroke-index scale for Mongolian gerbils (McGrow, 1977) in the modification by I. V. Gannushkina (1996). Evaluation was carried out by scores. If several symptoms of neurological deficit were present in animals, status severity was determined as a sum of corresponding scores. Numbers of rats with light (Stroke-index from 0.5 to 2.5) and severe (Stroke-index from 3 to 10) neurologic symptomatology were counted.
# The studies were carried out on male rats of the Vistar line (250-300 grams) held in a vivarium with free access to meals and water and at 12-hour mode of changing day and night.
# In the course of the study the animals were randomly distributed over 11 groups. Phenotropil in doses of 100 mg/Kg, 200 mg/Kg and 300 mg/Kg was injected intraperitoneally in three groups of animals 60 minutes prior to the operation and in three groups of animals in 5 minutes after the operation. A saline was injected in falsely operated animals. Then the solutions were injected once on the 2nd and the 3rd days. The solutions were injected strictly at the same time of the days±3 minutes.
# [1] = Group 4: 200 mg/Kg, falsely operated, 1 day
# [2] = Group 4: 200 mg/Kg, falsely operated, 2 days
# [3] = Group 4: 200 mg/Kg, falsely operated, 3 days
# [4] = Group 6: 100 mg/Kg intraperitoneally 60 minutes prior to OMCA, 1 day
# [5] = Group 6: 100 mg/Kg intraperitoneally 60 minutes prior to OMCA, 2 days
# [6] = Group 6: 100 mg/Kg intraperitoneally 60 minutes prior to OMCA, 3 days
# [7] = Group 7: 200 mg/Kg intraperitoneally 60 minutes prior to OMCA, 1 day
# [8] = Group 7: 200 mg/Kg intraperitoneally 60 minutes prior to OMCA, 2 days
# [9] = Group 7: 200 mg/Kg intraperitoneally 60 minutes prior to OMCA, 3 days
# [10] = Group 8: 300 mg/Kg intraperitoneally 60 minutes prior to OMCA, 1 day
# [11] = Group 8: 300 mg/Kg intraperitoneally 60 minutes prior to OMCA, 2 days
# [12] = Group 8: 300 mg/Kg intraperitoneally 60 minutes prior to OMCA, 3 days
# [13] = Group 9: 100 mg/Kg intraperitoneally in 5 minutes after OMCA, 1 day
# [14] = Group 9: 100 mg/Kg intraperitoneally in 5 minutes after OMCA, 2 days
# [15] = Group 9: 100 mg/Kg intraperitoneally in 5 minutes after OMCA, 3 days
# [16] = Group 10: 200 mg/Kg intraperitoneally in 5 minutes after OMCA, 1 day
# [17] = Group 10: 200 mg/Kg intraperitoneally in 5 minutes after OMCA, 2 days
# [18] = Group 10: 200 mg/Kg intraperitoneally in 5 minutes after OMCA, 3 days
# [19] = Group 11: 300 mg/Kg intraperitoneally in 5 minutes after OMCA, 1 day
# [20] = Group 11: 300 mg/Kg intraperitoneally in 5 minutes after OMCA, 2 days
# [21] = Group 11: 300 mg/Kg intraperitoneally in 5 minutes after OMCA, 3 days
structure (smiles),measurement,setting,value
"NC(=O)CN1CC(c2ccccc2)CC1=O (stereo not drawn) [Phenotropil, N-carbomoyl-methyl-4-phenyl-2-pyrrolidon]","Number of animals with flabbiness, slowness of motions",[1],4
same,Number of animals with manege movements,[1],0
same,Number of animals with tremor,[1],2
same,Number of animals with unilateral semiptosis,[1],3
same,"Number of animals with flabbiness, slowness of motions",[2],0
same,Number of animals with manege movements,[2],0
same,Number of animals with tremor,[2],0
same,Number of animals with unilateral semiptosis,[2],4
same,"Number of animals with flabbiness, slowness of motions",[3],0
same,Number of animals with manege movements,[3],0
same,Number of animals with tremor,[3],0
same,Number of animals with unilateral semiptosis,[3],0
same,"Number of animals with flabbiness, slowness of motions",[4],2
same,Number of animals with manege movements,[4],0
same,Number of animals with tremor,[4],2
same,Number of animals with unilateral semiptosis,[4],4
same,"Number of animals with flabbiness, slowness of motions",[5],1
same,Number of animals with manege movements,[5],0
same,Number of animals with tremor,[5],0
same,Number of animals with unilateral semiptosis,[5],5
same,"Number of animals with flabbiness, slowness of motions",[6],1
same,Number of animals with manege movements,[6],0
same,Number of animals with tremor,[6],0
same,Number of animals with unilateral semiptosis,[6],3
same,"Number of animals with flabbiness, slowness of motions",[7],3
same,Number of animals with manege movements,[7],0
same,Number of animals with tremor,[7],3
same,Number of animals with unilateral semiptosis,[7],4
same,"Number of animals with flabbiness, slowness of motions",[8],1
same,Number of animals with manege movements,[8],0
same,Number of animals with tremor,[8],0
same,Number of animals with unilateral semiptosis,[8],5
same,"Number of animals with flabbiness, slowness of motions",[9],1
same,Number of animals with manege movements,[9],0
same,Number of animals with tremor,[9],0
same,Number of animals with unilateral semiptosis,[9],3
same,"Number of animals with flabbiness, slowness of motions",[10],2
same,Number of animals with manege movements,[10],0
same,Number of animals with tremor,[10],2
same,Number of animals with unilateral semiptosis,[10],4
same,"Number of animals with flabbiness, slowness of motions",[11],1
same,Number of animals with manege movements,[11],0
same,Number of animals with tremor,[11],0
same,Number of animals with unilateral semiptosis,[11],5
same,"Number of animals with flabbiness, slowness of motions",[12],0
same,Number of animals with manege movements,[12],0
same,Number of animals with tremor,[12],0
same,Number of animals with unilateral semiptosis,[12],3
same,"Number of animals with flabbiness, slowness of motions",[13],5
same,Number of animals with manege movements,[13],0
same,Number of animals with tremor,[13],3
same,Number of animals with unilateral semiptosis,[13],4
same,"Number of animals with flabbiness, slowness of motions",[14],3
same,Number of animals with manege movements,[14],0
same,Number of animals with tremor,[14],0
same,Number of animals with unilateral semiptosis,[14],5
same,"Number of animals with flabbiness, slowness of motions",[15],2
same,Number of animals with manege movements,[15],0
same,Number of animals with tremor,[15],0
same,Number of animals with unilateral semiptosis,[15],3
same,"Number of animals with flabbiness, slowness of motions",[16],5
same,Number of animals with manege movements,[16],0
same,Number of animals with tremor,[16],3
same,Number of animals with unilateral semiptosis,[16],3
same,"Number of animals with flabbiness, slowness of motions",[17],3
same,Number of animals with manege movements,[17],0
same,Number of animals with tremor,[17],0
same,Number of animals with unilateral semiptosis,[17],4
same,"Number of animals with flabbiness, slowness of motions",[18],1
same,Number of animals with manege movements,[18],0
same,Number of animals with tremor,[18],0
same,Number of animals with unilateral semiptosis,[18],3
same,"Number of animals with flabbiness, slowness of motions",[19],4
same,Number of animals with manege movements,[19],0
same,Number of animals with tremor,[19],3
same,Number of animals with unilateral semiptosis,[19],4
same,"Number of animals with flabbiness, slowness of motions",[20],2
same,Number of animals with manege movements,[20],0
same,Number of animals with tremor,[20],0
same,Number of animals with unilateral semiptosis,[20],5
same,"Number of animals with flabbiness, slowness of motions",[21],1
same,Number of animals with manege movements,[21],0
same,Number of animals with tremor,[21],0
same,Number of animals with unilateral semiptosis,[21],3
